# From paper PMC1266353
# By UniProt entry, the sequences of proteins in these tests, tags left out. Residues count along the entry.
# UniProt P62993: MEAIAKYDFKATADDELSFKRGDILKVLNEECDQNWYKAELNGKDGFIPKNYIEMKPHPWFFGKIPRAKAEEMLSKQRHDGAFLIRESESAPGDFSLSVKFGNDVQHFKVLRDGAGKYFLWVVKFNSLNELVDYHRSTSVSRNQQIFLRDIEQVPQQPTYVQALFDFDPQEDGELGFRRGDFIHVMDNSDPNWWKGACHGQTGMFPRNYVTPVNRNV
# UniProt P33176, residues 265-639: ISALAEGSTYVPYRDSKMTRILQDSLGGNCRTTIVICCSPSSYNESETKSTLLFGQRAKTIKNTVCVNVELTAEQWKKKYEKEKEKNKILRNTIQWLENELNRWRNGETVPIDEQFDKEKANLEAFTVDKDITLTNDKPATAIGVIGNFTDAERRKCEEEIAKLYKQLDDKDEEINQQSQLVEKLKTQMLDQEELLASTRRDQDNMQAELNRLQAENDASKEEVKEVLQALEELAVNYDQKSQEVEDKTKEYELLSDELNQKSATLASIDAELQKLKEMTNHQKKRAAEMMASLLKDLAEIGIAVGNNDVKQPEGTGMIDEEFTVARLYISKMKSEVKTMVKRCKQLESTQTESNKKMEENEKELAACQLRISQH
# No constants are given. Whether binding was seen depends on the method and setting. For some of these results: Binding seen in cells or lysates may run through a third protein. Some binding calls cover weakened binding; strength is not graded here. For some of these results: Where a sequence is shown, tags or fusion partners need not be part of it.
# T1: LexA-KIF1C (amino acids 261-800) (UniProt O43896)
# T1 sequence: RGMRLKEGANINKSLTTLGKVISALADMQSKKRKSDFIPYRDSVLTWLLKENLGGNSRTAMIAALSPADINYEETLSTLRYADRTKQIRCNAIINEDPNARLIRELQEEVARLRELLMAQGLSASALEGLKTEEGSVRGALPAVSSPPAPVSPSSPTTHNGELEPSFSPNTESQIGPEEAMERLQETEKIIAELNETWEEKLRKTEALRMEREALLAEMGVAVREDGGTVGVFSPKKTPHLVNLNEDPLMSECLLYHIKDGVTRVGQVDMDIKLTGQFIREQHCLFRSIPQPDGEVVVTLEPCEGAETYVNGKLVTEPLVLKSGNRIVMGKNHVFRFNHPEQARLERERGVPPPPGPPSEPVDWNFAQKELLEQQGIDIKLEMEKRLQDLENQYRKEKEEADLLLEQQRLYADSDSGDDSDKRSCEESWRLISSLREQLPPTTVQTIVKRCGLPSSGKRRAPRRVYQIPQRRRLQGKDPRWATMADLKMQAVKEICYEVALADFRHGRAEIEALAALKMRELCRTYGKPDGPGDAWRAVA
# T2: GST-KIF1Bα(270–641) fusion protein (human) (UniProt O60333)
# T2 sequence: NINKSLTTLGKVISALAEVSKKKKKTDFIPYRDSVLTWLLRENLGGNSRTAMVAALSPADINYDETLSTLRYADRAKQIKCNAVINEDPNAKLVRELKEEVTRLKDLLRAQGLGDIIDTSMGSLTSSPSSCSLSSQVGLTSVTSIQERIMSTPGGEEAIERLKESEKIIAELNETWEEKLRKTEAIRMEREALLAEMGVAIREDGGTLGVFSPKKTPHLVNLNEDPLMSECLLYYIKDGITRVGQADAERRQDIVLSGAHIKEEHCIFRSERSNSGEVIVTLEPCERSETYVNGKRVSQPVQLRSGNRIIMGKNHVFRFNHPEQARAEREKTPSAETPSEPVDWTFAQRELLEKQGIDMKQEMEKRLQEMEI
# T3: KIF1B (construct of the experiments with KBP fragments, data not shown) (human) (UniProt O60333)
# T3 sequence: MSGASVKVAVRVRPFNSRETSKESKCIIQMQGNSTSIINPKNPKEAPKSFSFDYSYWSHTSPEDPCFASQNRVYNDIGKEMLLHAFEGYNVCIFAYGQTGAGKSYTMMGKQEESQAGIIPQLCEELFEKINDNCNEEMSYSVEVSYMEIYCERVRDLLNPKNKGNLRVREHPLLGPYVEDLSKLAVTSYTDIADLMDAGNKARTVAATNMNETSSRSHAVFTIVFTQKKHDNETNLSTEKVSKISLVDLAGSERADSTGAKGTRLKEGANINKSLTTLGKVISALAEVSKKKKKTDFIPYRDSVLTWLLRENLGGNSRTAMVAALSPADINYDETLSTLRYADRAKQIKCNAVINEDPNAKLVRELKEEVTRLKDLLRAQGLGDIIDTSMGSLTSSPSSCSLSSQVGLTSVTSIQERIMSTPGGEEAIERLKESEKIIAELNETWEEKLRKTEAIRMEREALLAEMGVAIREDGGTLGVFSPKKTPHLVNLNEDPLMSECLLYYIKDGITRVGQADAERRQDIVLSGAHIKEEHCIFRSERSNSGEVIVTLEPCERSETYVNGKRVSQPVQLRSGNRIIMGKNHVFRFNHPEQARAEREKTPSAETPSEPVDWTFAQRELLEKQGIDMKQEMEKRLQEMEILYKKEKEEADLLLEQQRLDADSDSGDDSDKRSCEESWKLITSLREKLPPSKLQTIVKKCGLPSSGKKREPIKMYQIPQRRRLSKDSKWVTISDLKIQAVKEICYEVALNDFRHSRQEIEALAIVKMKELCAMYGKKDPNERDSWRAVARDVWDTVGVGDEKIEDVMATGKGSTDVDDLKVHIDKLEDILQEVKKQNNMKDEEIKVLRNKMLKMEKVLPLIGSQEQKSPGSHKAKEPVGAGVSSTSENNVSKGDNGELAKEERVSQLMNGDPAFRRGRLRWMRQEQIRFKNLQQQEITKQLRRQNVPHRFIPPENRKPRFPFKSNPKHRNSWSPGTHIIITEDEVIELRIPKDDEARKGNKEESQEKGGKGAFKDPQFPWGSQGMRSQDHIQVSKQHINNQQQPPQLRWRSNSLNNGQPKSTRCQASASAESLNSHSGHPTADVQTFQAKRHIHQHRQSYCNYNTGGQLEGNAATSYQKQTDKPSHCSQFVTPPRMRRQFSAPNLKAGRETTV
# Key:
# [1] = target: T1, LexA-KIF1C (amino acids 261-800); assay: two-hybrid; LexA-KIF1C fragment as bait (pBTM116) in S. cerevisiae L40; brain cDNA library fused to the GAL4 activation domain (pACT2); 5 x 10^6 transformants; His+ β-Gal+ colonies, retransformed
# GST-Grb2 fusion protein = GST-Grb2 fusion protein (UniProt P62993); assay: pull-down; 1 μg of GST fusion protein on glutathione-Sepharose incubated 4 hours at 4°C with lysate of 293 cells transiently overexpressing KBP or KBPΔ250–281; washed with HNTG buffer; blotted with GST-KBP antiserum; only the target purified
# [2] = target: T2, GST-KIF1Bα(270–641) fusion protein (human); assay: as above
# [3] = target: GST-KIF5B (amino acids 265–639) (human) (UniProt P33176); assay: as above
# [4] = target: T3, KIF1B (construct of the experiments with KBP fragments, data not shown) (human); assay: pull-down; experiments using GST-fusion proteins (data not shown); which partner carried GST is not told
Binder,binding [2],binding [4],also measured
"KBP (KIF1 binding protein), GAL4 activation domain fusion from a brain cDNA library (protein, UniProt Q96EK5 1-621) MANVPWAEVCEKFQAALALSRVELHKNPEKEPYKSKYSARALLEEVKALLGPAPEDEDERPEAEDGPGAGDHALGLPAEVVEPEGPVAQRAVRLAVIEFHLGVNHIDTEELSAGEEHLVKCLRLLRRYRLSHDCISLCIQAQNNLGILWSEREEIETAQAYLESSEALYNQYMKEVGSPPLDPTERFLPEEEKLTEQERSKRFEKVYTHNLYYLAQVYQHLEMFEKAAHYCHSTLKRQLEHNAYHPIEWAINAATLSQFYINKLCFMEARHCLSAANVIFGQTGKISATEDTPEAEGEVPELYHQRKGEIARCWIKYCLTLMQNAQLSMQDNIGELDLDKQSELRALRKKELDEEESIRKKAVQFGTGELCDAISAVEEKVSYLRPLDFEEARELFLLGQHYVFEAKEFFQIDGYVTDHIEVVQDHSALFKVLAFFETDMERRCKMHKRRIAMLEPLTVDLNPQYYLLVNRQIQFEIAHAYYDMMDLKVAIADRLRDPDSHIVKKINNLNKSALKYYQLFLDSLRDPNKVFPEHIGEDVLRPAMLAKFRVARLYGKIITADPKKELENLATSLEHYKFIVDYCEKHPEAAQEIEVELELSKEMVSLLPTKMERFRTKMALT",,,binding [1]: binds
"KBP, overexpressed in 293 cells (protein, UniProt Q96EK5 1-621) MANVPWAEVCEKFQAALALSRVELHKNPEKEPYKSKYSARALLEEVKALLGPAPEDEDERPEAEDGPGAGDHALGLPAEVVEPEGPVAQRAVRLAVIEFHLGVNHIDTEELSAGEEHLVKCLRLLRRYRLSHDCISLCIQAQNNLGILWSEREEIETAQAYLESSEALYNQYMKEVGSPPLDPTERFLPEEEKLTEQERSKRFEKVYTHNLYYLAQVYQHLEMFEKAAHYCHSTLKRQLEHNAYHPIEWAINAATLSQFYINKLCFMEARHCLSAANVIFGQTGKISATEDTPEAEGEVPELYHQRKGEIARCWIKYCLTLMQNAQLSMQDNIGELDLDKQSELRALRKKELDEEESIRKKAVQFGTGELCDAISAVEEKVSYLRPLDFEEARELFLLGQHYVFEAKEFFQIDGYVTDHIEVVQDHSALFKVLAFFETDMERRCKMHKRRIAMLEPLTVDLNPQYYLLVNRQIQFEIAHAYYDMMDLKVAIADRLRDPDSHIVKKINNLNKSALKYYQLFLDSLRDPNKVFPEHIGEDVLRPAMLAKFRVARLYGKIITADPKKELENLATSLEHYKFIVDYCEKHPEAAQEIEVELELSKEMVSLLPTKMERFRTKMALT",binds,,binding (GST-Grb2 fusion protein): no binding; binding [3]: no binding
"KBP, first 305 amino acids (domain or fragment, UniProt Q96EK5 1-305) MANVPWAEVCEKFQAALALSRVELHKNPEKEPYKSKYSARALLEEVKALLGPAPEDEDERPEAEDGPGAGDHALGLPAEVVEPEGPVAQRAVRLAVIEFHLGVNHIDTEELSAGEEHLVKCLRLLRRYRLSHDCISLCIQAQNNLGILWSEREEIETAQAYLESSEALYNQYMKEVGSPPLDPTERFLPEEEKLTEQERSKRFEKVYTHNLYYLAQVYQHLEMFEKAAHYCHSTLKRQLEHNAYHPIEWAINAATLSQFYINKLCFMEARHCLSAANVIFGQTGKISATEDTPEAEGEVPELYHQ",,binds,
"KBP mutant lacking the first 214 amino acids (domain or fragment, UniProt Q96EK5 215-621) AQVYQHLEMFEKAAHYCHSTLKRQLEHNAYHPIEWAINAATLSQFYINKLCFMEARHCLSAANVIFGQTGKISATEDTPEAEGEVPELYHQRKGEIARCWIKYCLTLMQNAQLSMQDNIGELDLDKQSELRALRKKELDEEESIRKKAVQFGTGELCDAISAVEEKVSYLRPLDFEEARELFLLGQHYVFEAKEFFQIDGYVTDHIEVVQDHSALFKVLAFFETDMERRCKMHKRRIAMLEPLTVDLNPQYYLLVNRQIQFEIAHAYYDMMDLKVAIADRLRDPDSHIVKKINNLNKSALKYYQLFLDSLRDPNKVFPEHIGEDVLRPAMLAKFRVARLYGKIITADPKKELENLATSLEHYKFIVDYCEKHPEAAQEIEVELELSKEMVSLLPTKMERFRTKMALT",,binds,
"KBPΔ250–281 (protein, UniProt Q96EK5) MANVPWAEVCEKFQAALALSRVELHKNPEKEPYKSKYSARALLEEVKALLGPAPEDEDERPEAEDGPGAGDHALGLPAEVVEPEGPVAQRAVRLAVIEFHLGVNHIDTEELSAGEEHLVKCLRLLRRYRLSHDCISLCIQAQNNLGILWSEREEIETAQAYLESSEALYNQYMKEVGSPPLDPTERFLPEEEKLTEQERSKRFEKVYTHNLYYLAQVYQHLEMFEKAAHYCHSTLKRQLEHNAYHPIEWQTGKISATEDTPEAEGEVPELYHQRKGEIARCWIKYCLTLMQNAQLSMQDNIGELDLDKQSELRALRKKELDEEESIRKKAVQFGTGELCDAISAVEEKVSYLRPLDFEEARELFLLGQHYVFEAKEFFQIDGYVTDHIEVVQDHSALFKVLAFFETDMERRCKMHKRRIAMLEPLTVDLNPQYYLLVNRQIQFEIAHAYYDMMDLKVAIADRLRDPDSHIVKKINNLNKSALKYYQLFLDSLRDPNKVFPEHIGEDVLRPAMLAKFRVARLYGKIITADPKKELENLATSLEHYKFIVDYCEKHPEAAQEIEVELELSKEMVSLLPTKMERFRTKMALT",no binding,,
